From PubChem BioAssay AID1461 (National Center for Advancing Translational Sciences (NCATS), 2008)
Screen size: about 220,000 compounds; about 2,300 (1%) were called active. The shares of active, inactive and inconclusive entries below differ from those in the screen. The call rests on the fitted dose curve; in most records, active means well fitted inhibition curve with a large enough effect; inconclusive means small, poorly fitted or top-dose-only effect, or effect the other way; inactive means no such curve, though single readings can be large or run the other way. No potency is given beside an inconclusive call; the fits are too rough.

Biological target: Neuropeptide S receptor (Homo sapiens) (UniProt Q6W5P4)
Chain of UniProt Q6W5P4 (Q6W5P4 whole entry, looked up): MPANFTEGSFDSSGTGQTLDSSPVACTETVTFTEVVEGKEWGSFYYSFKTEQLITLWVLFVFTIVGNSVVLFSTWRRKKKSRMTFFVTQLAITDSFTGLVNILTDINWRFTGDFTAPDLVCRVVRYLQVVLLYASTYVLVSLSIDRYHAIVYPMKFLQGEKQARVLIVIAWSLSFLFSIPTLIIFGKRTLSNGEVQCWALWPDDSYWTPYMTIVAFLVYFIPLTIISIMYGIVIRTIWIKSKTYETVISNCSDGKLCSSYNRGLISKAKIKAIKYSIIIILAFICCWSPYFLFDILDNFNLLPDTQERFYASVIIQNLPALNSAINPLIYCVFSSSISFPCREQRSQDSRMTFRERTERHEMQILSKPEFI
Test: qHTS Assay for Antagonists of the Neuropeptide S Receptor: cAMP Signal Transduction; further: nearly all actives have a fitted effect of over 50% in size
Settings: CHO-NPSR cells, cAMP TR-FRET, antagonist mode; series mostly up to 38.3 µM
Potency means the concentration at half of the fitted maximal effect; tags describe the fitted curve by direction and shape.

Compound | Potency
CC(C)Oc1cccc(C(=O)NC(=S)Nc2cccc(C(F)(F)F)c2)c1 | inactive
N#C/C(=C\c1c(N(Cc2ccccc2)Cc2ccccc2)nc2ccccn2c1=O)C(N)=O | inconclusive [inhibitor, partial curve, poor fit]
COc1cc(OC)cc(-c2nc(-c3ccccc3OC)no2)c1 | inactive
CN1C(=O)CCC1c1cccnc1 (stereo not drawn) | inconclusive [activator, single point]
c1nc(N2CCNCC2)c2sc3nc(N4CCOCC4)c4c(c3c2n1)CCC4 | inconclusive [inhibitor, single point]
Cc1cccc(NCc2cc(Cl)ccc2O)n1 | inconclusive [activator, single point]
CCCCOc1ccc(/C=N/NC(=O)c2csc(C)c2C)cc1 | inconclusive [inhibitor, single point]
O=C(Cn1cnc2c(cnn2-c2ccccc2)c1=O)N1CCN(c2ccc(F)cc2)CC1 | inactive
CCOC(=O)c1[nH]c2ccc(F)cc2c1NC(=O)CN1CCN(C/C=C/c2ccccc2)CC1 | inconclusive [inhibitor, single point]
O=C(COC(=O)c1ccc2c(c1)C(=O)N(c1cccc3ncccc13)C2=O)c1ccc(Cl)cc1 | inactive
O=C(COC(=O)C12CC3CC(CC(C3)C1)C2)NC12CC3CC(CC(C3)C1)C2 | inconclusive [inhibitor, single point]
COC(=O)c1ccc(NC(=O)CN(C)Cc2cccc(F)c2)cc1 | inactive
CCC(=O)N1CCN(c2ccc(NC(=O)c3ccc([N+](=O)[O-])o3)cc2Cl)CC1 | active: 5.01 µM
Cc1ccn2c(Nc3ccccc3C)c(-c3ccccn3)nc2c1 | inconclusive [inhibitor, single point]
COc1ccc(OC)c(NC(=O)C(Sc2ccccc2)c2ccccc2)c1 (stereo not drawn) | inconclusive [inhibitor, single point]
O=C(Nc1ccn(Cc2ccccc2F)n1)c1ccc(COc2ccc(Cl)cc2Cl)o1 | inconclusive [inhibitor, single point]
COc1cc(NC(=O)CSc2nnc(-c3ccncc3)n2C2CCCCC2)ccc1NC(=O)c1ccco1 | inconclusive [inhibitor, partial curve]
O=C(c1ccc(C(=O)N2CCOCC2)nc1)N1CCOCC1 | inactive
Cc1cc(N2CCCCC2)nc2ccc(NC(=O)c3ccc(Br)o3)cc12 | inconclusive [inhibitor, single point]
Cc1ccc(NS(=O)(=O)c2ccc(CCC(=O)NCc3cccnc3)cc2)cc1 | inactive
CCCCCc1cc(=O)oc2c(C(CCN3CCCCC3)c3cc(OC)c(OC)c(OC)c3)c(OC)cc(OC)c12 (stereo not drawn) | active: 10 µM
CSCc1cc(N2CCOCC2)nc(SCc2ccc(Cl)cc2Cl)n1 | inconclusive [inhibitor, partial curve]
CSc1nc2ccc(NS(=O)(=O)c3ccccc3F)cc2s1 | inactive
COc1cc(/C=N/n2cnnc2)ccc1OCCOc1ccccc1 | inactive

Compound | Potency
O=C(CN(Cc1ccc2c(c1)OCO2)C(=O)CSc1nc2ccccc2o1)NC1CCCCC1 | inconclusive [inhibitor, partial curve, poor fit]
CCN(Cc1ccccc1)C(=O)c1cc(COc2c(F)cccc2F)on1 | inconclusive [inhibitor, single point]
CC(C)C(=O)N1CCN(c2nc(-c3ccccc3)c3c(c2C#N)CCCC3)CC1 | inconclusive [inhibitor, single point]
Oc1csc(Cc2nc(-c3ccc(Br)cc3)cs2)n1 | inactive
O=C(CSc1nnc2c3ccccc3c3ccccc3c2n1)Nc1ccccc1 | inconclusive [inhibitor, single point]
O=C(Nc1ccc(-c2cn3ccsc3n2)cc1)C1COc2ccccc2O1 (stereo not drawn) | inconclusive [inhibitor, single point]
COC(=O)C(C(=O)Nc1ccc(OC)cc1)C1CCCCCC1 (stereo not drawn) | inactive
CC(=O)Nc1cccc(CP(=O)(c2ccccc2)c2ccccc2)c1 | inconclusive [activator, single point]
Nc1nc(Nc2cccc(Cl)c2)nc(NCc2ccco2)c1[N+](=O)[O-] | inactive
COc1ccc(C2NC(=O)c3sc4nc(C)c(C(C)=O)c(-c5ccc(Cl)cc5)c4c3N2)cc1 (stereo not drawn) | inconclusive [inhibitor, single point]
COc1cccc(/C=N/Nc2cc(C)nc(-c3ccccc3O)n2)c1O | inconclusive [activator, single point]
Cc1ccc(/C=N/NC(=O)C(O)c2ccccc2)o1 (stereo not drawn) | inactive
O=C(Nc1ccccc1N1CCCC1)c1cc2ccccc2o1 | inconclusive [inhibitor, single point]
Cc1ncc(N=Nc2ccccc2)c(-c2ccccc2)n1 | inconclusive [inhibitor, single point]
CCN(C(=O)c1cc2ccccc2oc1=O)c1ccccc1 | inactive
Cc1ccccc1OCc1nnc(SCC(=O)Nc2ccc3nc(SCC(=O)NC(C)(C)C)sc3c2)n1C | inactive
COCc1cc(C)nc(OCC(=O)N/N=C/c2ccc(C)o2)c1C#N | inactive
COc1cc2c(OC(C)=O)c3c(c(-c4ccc5c(c4)OCO5)c2cc1OC)C(=O)OC3 | inconclusive [activator, single point]
COc1ccc(/C=C/c2ccccc2)cc1[C@H]1[C@@H]2C=CCC[C@@]2(C)C(=O)N1Cc1ccccc1 | inconclusive [inhibitor, single point]
COc1ccc(COc2ccccc2C(=O)NCc2ccccc2)cc1F | inactive
CN(CCNC(=O)c1cn(C)c2ccc(S(=O)(=O)N3CCCC3)cc2c1=O)CCc1ccccc1 | inactive
Cc1cc2oc(=O)cc(CN3CCOCC3)c2cc1C | inactive
CCCS(=O)(=O)n1nc(-c2ccc(Br)cc2)cc1N | inactive
Cc1cc(C)c(COCc2cc(/C=N/O)c(C)cc2C)cc1/C=N/O | inconclusive [inhibitor, single point]
